115 sequences from the BET-seq Pho4 binding data (Le et al. 2018) can be followed below.

This is one part of the list. The energies were worked out here from pooled read counts, against the library average; single values are noisy.

The assay concerns the target T1, Pho4 (S. cerevisiae) (UniProt P07270).
T1 sequence: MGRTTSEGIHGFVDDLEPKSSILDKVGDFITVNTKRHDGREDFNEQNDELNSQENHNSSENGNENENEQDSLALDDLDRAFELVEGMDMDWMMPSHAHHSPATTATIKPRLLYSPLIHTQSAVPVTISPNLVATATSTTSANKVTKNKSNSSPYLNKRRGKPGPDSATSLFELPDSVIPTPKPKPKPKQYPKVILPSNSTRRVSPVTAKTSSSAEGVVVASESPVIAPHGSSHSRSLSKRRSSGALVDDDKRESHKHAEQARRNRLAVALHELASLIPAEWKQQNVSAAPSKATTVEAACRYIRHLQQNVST
In words: relative binding free energy (BET-seq); higher = weaker binding. The note with it: reference: library average.
With TGACTCACGTGAGGGT, the “relative binding free energy” value was 0.24 kcal/mol. GTTGGCACGTGTTGCG: the “relative binding free energy” value is -0.03 kcal/mol. The value for TTTTGCACGTGTGTGC was 0.07 kcal/mol; that for GCAGGCACGTGAGTGT was 0.14 kcal/mol. The value for TGGTTCACGTGTATCC was 0.3 kcal/mol; that for AGTCACACGTGTGATG was 0.18 kcal/mol; that for GTATGCACGTGTAGGA was 0.12 kcal/mol. The value for GGTTACACGTGGGTCA was -0.05 kcal/mol; that for CATTTCACGTGGGCGT was 0.26 kcal/mol; that for TGGAGCACGTGGGATC was -0.02 kcal/mol. Consider AGTCGCACGTGGGAGT, for which the “relative binding free energy” value is -0.07 kcal/mol. To TAGAACACGTGAGCGG belongs 0.35 kcal/mol; to TGTCTCACGTGTATAT, 0.28 kcal/mol.

With GTGATCACGTGGCGAT, the “relative binding free energy” value came to 0 kcal/mol. Take TATGTCACGTGGTCTA: the “relative binding free energy” value was -0.13 kcal/mol. The value for TTATTCACGTGTGAAA was 0.4 kcal/mol; that for CGGCGCACGTGTTGTG was -0.15 kcal/mol. The value for TGCGGCACGTGTGAAT was -0.06 kcal/mol. To GGTGACACGTGATTGG belongs 0.09 kcal/mol; to TTTTCCACGTGTAGGG, 0.02 kcal/mol; to TGTGGCACGTGCAGCG, -0.15 kcal/mol. For TCGTACACGTGGGTAT, the “relative binding free energy” value was determined as 0.02 kcal/mol. The value for CGGCGCACGTGTTGGT was -0.14 kcal/mol. To AACGGCACGTGGGTAG belongs -0.18 kcal/mol; to GAGAGCACGTGTGGAT, -0.04 kcal/mol.

Consider CTATGCACGTGTGGGT, for which the “relative binding free energy” value is -0.08 kcal/mol. To CGATGCACGTGAGGAG belongs 0.18 kcal/mol; to GAGGACACGTGAGGAT, 0.42 kcal/mol; to AGGGTCACGTGAGAAT, 0.26 kcal/mol. To ATGGGCACGTGTGCTT belongs 0.01 kcal/mol; to TTGTGCACGTGCTGTG, -0.04 kcal/mol. The value for GGGGCCACGTGGTCTG was -0.34 kcal/mol. As to TAGTTCACGTGGGGAC, the “relative binding free energy” value stood at 0.28 kcal/mol. The value for ATTTGCACGTGGCCTT was -0.12 kcal/mol; that for GAGGGCACGTGATAGG was 0.07 kcal/mol; that for AGCTTCACGTGGGCGC was 0.45 kcal/mol.

Take GCTGGCACGTGTTGTA: the “relative binding free energy” value was -0.15 kcal/mol. To TGCTGCACGTGAGGTC belongs 0.19 kcal/mol; to CAGGACACGTGAGTTG, 0.28 kcal/mol. The value for CTGTGCACGTGTTGAT was -0.2 kcal/mol; that for TTCGTCACGTGGGCAT was -0.03 kcal/mol. To GCGTTCACGTGTATTA belongs 0.3 kcal/mol; to TCGTTCACGTGAATTA, 0.48 kcal/mol. In the case of AGATACACGTGGTAGT, the “relative binding free energy” value was found to be 0 kcal/mol. For the sequence TAGGTCACGTGAGGTT, the “relative binding free energy” value was determined as 0.29 kcal/mol.

Consider GTGGTCACGTGTAGAA, for which the “relative binding free energy” value came out at 0.22 kcal/mol. To GTTAACACGTGGGGGG belongs -0.1 kcal/mol; to TAGAACACGTGTGGGG, 0.08 kcal/mol. For GTAGACACGTGGTTTA, the “relative binding free energy” value was -0.06 kcal/mol. The value for AGAGGCACGTGGGACG was -0.26 kcal/mol.

As to TTTAGCACGTGTGCAG, the “relative binding free energy” value was -0.16 kcal/mol. The value for TTTTGCACGTGGCGTC was -0.15 kcal/mol; that for GGGTTCACGTGTTTGT was 0.36 kcal/mol; that for AGTAGCACGTGAGTTT was 0.28 kcal/mol. The value for TATATCACGTGTGCGG was 0.06 kcal/mol. With TAGTGCACGTGTAAAT, the “relative binding free energy” value was -0.13 kcal/mol. For the sequence AATGTCACGTGTCATT, the “relative binding free energy” value turned out to be 0.04 kcal/mol. Regarding TTATACACGTGGTAGA, the “relative binding free energy” value was determined as 0.03 kcal/mol. The value for TCGGACACGTGAGGAG was 0.22 kcal/mol; that for TGGCACACGTGGTTTG was 0.06 kcal/mol.

For the sequence TGGTTCACGTGAATGC, the “relative binding free energy” value is 0.32 kcal/mol.

As for AGAGTCACGTGCAATG, the “relative binding free energy” value stood at 0.24 kcal/mol. The value for TTGTGCACGTGGGGTG was -0.16 kcal/mol; that for TCATTCACGTGTTGGT was 0.34 kcal/mol; that for TGGGCCACGTGTGACG was 0.03 kcal/mol. To CGTGTCACGTGCAGGG belongs -0.11 kcal/mol; to GTGGACACGTGTGGTA, 0.29 kcal/mol. The value for CTTATCACGTGAGTAG was 0.35 kcal/mol; that for TGTATCACGTGTTGCT was 0.11 kcal/mol; that for CTGGTCACGTGGGTAG was 0.01 kcal/mol.

As to ACCGGCACGTGTTGGT, the “relative binding free energy” value is -0.04 kcal/mol. As for ACTGTCACGTGGAAGG, the “relative binding free energy” value came to 0.17 kcal/mol.

On to AAGTTCACGTGACGGT, for which the “relative binding free energy” value came out at 0.18 kcal/mol. The value for GCTTGCACGTGGTGTA was -0.07 kcal/mol; that for GACGTCACGTGGTGGC was 0.23 kcal/mol. On to GGAACCACGTGTGTTT, for which the “relative binding free energy” value is 0.07 kcal/mol.

Consider TGGGACACGTGGTGGA, for which the “relative binding free energy” value amounted to 0.03 kcal/mol. In the case of GGTTACACGTGAAGGA, the “relative binding free energy” value is 0.47 kcal/mol. To GCGCTCACGTGGGTTA belongs 0.15 kcal/mol; to ATGTACACGTGCGGTA, 0 kcal/mol. The value for TGTGTCACGTGGCGTA was 0.04 kcal/mol. To AATAGCACGTGTGGCA belongs 0.12 kcal/mol; to ATACTCACGTGGTGTA, 0.07 kcal/mol; to TGTCTCACGTGTTGTA, 0.26 kcal/mol.

On to GTGTGCACGTGTTGCT, for which the “relative binding free energy” value was -0.08 kcal/mol.

With ATTGACACGTGTTTTG, the “relative binding free energy” value stood at 0.1 kcal/mol. To TGACGCACGTGGCGGG belongs -0.19 kcal/mol. The value for GGATGCACGTGAGAAG was 0.36 kcal/mol; that for GTTTGCACGTGCGTTT was 0.1 kcal/mol. To GGTCGCACGTGGTGGT belongs -0.02 kcal/mol; to TATGGCACGTGTGGGG, 0 kcal/mol. As to TGCTGCACGTGGAGGC, the “relative binding free energy” value is 0.01 kcal/mol.

For GAGGCCACGTGGGTTG, the “relative binding free energy” value is -0.26 kcal/mol. With TGGGTCACGTGATAGA, the “relative binding free energy” value was determined as 0.2 kcal/mol. Consider TGGTTCACGTGGTATA, for which the “relative binding free energy” value was 0.19 kcal/mol. To TGAATCACGTGTTAGA belongs 0.16 kcal/mol. As to TTTGGCACGTGGTACT, the “relative binding free energy” value was -0.19 kcal/mol.

Regarding GGCTACACGTGGTAAG, the “relative binding free energy” value was determined as 0.12 kcal/mol. Regarding TTTGACACGTGGGACT, the “relative binding free energy” value was 0.05 kcal/mol. The value for ATGGGCACGTGGGACG was -0.22 kcal/mol; that for TATCTCACGTGTGGAA was 0.34 kcal/mol; that for ATTCTCACGTGGTATA was 0.15 kcal/mol.

Turning to TGTGACACGTGGGTTA, the “relative binding free energy” value was -0.16 kcal/mol. To TTTGTCACGTGTCGCA belongs 0.09 kcal/mol; to TGTAACACGTGGCGGT, 0.01 kcal/mol.

For TCTGCCACGTGTTGTT, the “relative binding free energy” value is 0.04 kcal/mol.

As to TGGTGCACGTGAGAAT, the “relative binding free energy” value worked out at 0.32 kcal/mol. The value for AGTCACACGTGTAGTG was 0.03 kcal/mol; that for TAATTCACGTGGCTGG was 0.32 kcal/mol.

For TATGTCACGTGCACGG, the “relative binding free energy” value turned out to be 0.1 kcal/mol. The value for CACGGCACGTGGGGTG was -0.2 kcal/mol; that for TTCGTCACGTGGCTTT was 0.01 kcal/mol; that for TAATTCACGTGTCGAT was 0.22 kcal/mol. To AAGGGCACGTGGATAT belongs -0.12 kcal/mol; to ATTTACACGTGTGGCG, 0.21 kcal/mol.
